Data published in the BET-seq Pho4 binding data (Le et al. 2018).
The other results are listed elsewhere or left out. These are noisy estimates, calculated here from bound and input reads.

The sequences below were run against T1, Pho4 (S. cerevisiae) (UniProt P07270) (assay: relative binding free energy (BET-seq); higher = weaker binding). Conditions: reference: library average.
T1 sequence: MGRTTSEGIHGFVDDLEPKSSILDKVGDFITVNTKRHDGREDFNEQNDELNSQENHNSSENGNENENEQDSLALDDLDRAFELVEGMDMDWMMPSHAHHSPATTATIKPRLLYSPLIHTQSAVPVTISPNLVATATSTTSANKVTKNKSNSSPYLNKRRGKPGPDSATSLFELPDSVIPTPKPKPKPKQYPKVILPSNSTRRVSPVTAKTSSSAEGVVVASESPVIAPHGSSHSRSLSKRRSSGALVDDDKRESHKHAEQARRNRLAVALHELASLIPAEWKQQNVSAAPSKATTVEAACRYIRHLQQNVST

Sequence	relative binding free energy
TGATTCACGTGCAAGT	0.2 kcal/mol
ATAGACACGTGGATTT	0.14 kcal/mol
AGATTCACGTGGAGTC	0.35 kcal/mol
TCTTACACGTGGGAAG	0.32 kcal/mol
ACTGTCACGTGTGGGT	0.11 kcal/mol
GAAGTCACGTGGTTGT	0.09 kcal/mol
TGGTCCACGTGGAGCG	0.21 kcal/mol
GGGGTCACGTGTCGTA	0.23 kcal/mol
AGTTCCACGTGGGGTG	-0.16 kcal/mol
TTTTACACGTGACGTG	0.2 kcal/mol
GGGCTCACGTGCGTGA	0.21 kcal/mol
TAGACCACGTGGAGTT	0.21 kcal/mol
GGTAGCACGTGTTTGA	-0.13 kcal/mol
GACGTCACGTGAAGGG	0.44 kcal/mol
TGCTTCACGTGTAGTA	0.09 kcal/mol
TCATTCACGTGGTGAT	0.22 kcal/mol
ATTTTCACGTGTAACT	0.2 kcal/mol
GATTTCACGTGGTTCT	0.2 kcal/mol
TGATACACGTGGTTTT	0.11 kcal/mol
AGAATCACGTGGTGGC	0.16 kcal/mol
TTAAGCACGTGGGAAG	-0.26 kcal/mol

Sequence	relative binding free energy
ATTATCACGTGTTGCA	0.01 kcal/mol
TGACACACGTGGGGTA	-0.22 kcal/mol
TTGCTCACGTGGCTGT	0.08 kcal/mol
TGATTCACGTGTCGAT	0.27 kcal/mol
ATGGTCACGTGTTATT	0.14 kcal/mol
TGGCTCACGTGTCTTT	0.22 kcal/mol
GGTGGCACGTGTACTG	-0.05 kcal/mol
GGGAGCACGTGGCGTG	-0.12 kcal/mol
ATTGACACGTGAGGTG	0.12 kcal/mol
GGGGCCACGTGGTGTT	-0.19 kcal/mol
GATTACACGTGTTGAA	0.24 kcal/mol
ACGCTCACGTGTGGTT	0.32 kcal/mol
GGAGACACGTGTTGGC	0.05 kcal/mol
GTGTACACGTGGTGTG	0 kcal/mol
AAGTTCACGTGTAAAG	0.28 kcal/mol
TCATGCACGTGTATTG	-0.18 kcal/mol
CGTGCCACGTGGATGG	-0.17 kcal/mol
AAAAGCACGTGGGTAG	-0.23 kcal/mol
ATGTTCACGTGTTTGT	0.25 kcal/mol
TAAACCACGTGGAGGG	0.03 kcal/mol
CGGGTCACGTGGGGGT	-0.07 kcal/mol

Sequence	relative binding free energy
GCTTCCACGTGGGGGT	-0.1 kcal/mol
GGGATCACGTGGGGCT	0.14 kcal/mol
AGGATCACGTGTAAGT	0.1 kcal/mol
TTATGCACGTGATGGG	0.12 kcal/mol
GTGGACACGTGGGGTC	-0.15 kcal/mol
TGGTACACGTGGGTAT	-0.07 kcal/mol
GTTAGCACGTGCGTTG	-0.02 kcal/mol
GAAGCCACGTGTGTTG	0.05 kcal/mol
TGTCGCACGTGATGAA	0.37 kcal/mol
CGTTTCACGTGAGCTG	0.47 kcal/mol
GTGGGCACGTGGGTCG	-0.16 kcal/mol
GGGTGCACGTGACGTC	0.15 kcal/mol
GTGGGCACGTGATATT	0.13 kcal/mol
GGTTGCACGTGATCGT	0.1 kcal/mol
CCTTTCACGTGTTTTT	0.14 kcal/mol
CGGGTCACGTGCTGGT	0.11 kcal/mol
GTGAACACGTGGGGGC	-0.08 kcal/mol
TGGATCACGTGATTTT	0.28 kcal/mol
TGTGTCACGTGTGAAG	0.21 kcal/mol
TATAGCACGTGGGCGA	-0.17 kcal/mol
TTTCGCACGTGCTTGT	-0.08 kcal/mol
